# Measurements published in PubChem BioAssay AID2202238 (Ras Initiative Chemistry Research Team, Frederick National …, 2025).
# The list shows a part of the results. Further columns of the screen follow, without active or inactive calls.
# Molecular target: GTPase KRas (Homo sapiens) (UniProt P01116)
# Test: Cysteine mutants labelled by reactive fragments (mass read-out) (AID 2202238)
# Parameters: protein at 5 µM with 500 µM competing thiol for 1.5 h
# Settings: KRAS G12D cysteine mutants, disulfide tethering, MALDI-TOF labeling, stronger effect = higher value, fragment at 500 µM
# [1] = measured here: G60C mutant labeling
# [2] = measured here: G75C mutant labeling
# [3] = measured here: H94C mutant labeling
# [4] = measured here: I36C mutant labeling
# [5] = measured here: L120C mutant labeling
# [6] = measured here: M67C mutant labeling
# [7] = measured here: M72C mutant labeling
# [8] = measured here: N26C mutant labeling
# [9] = measured here: N86C mutant labeling
# [10] = measured here: P121C mutant labeling
# [11] = measured here: S122C mutant labeling
# [12] = measured here: S136C mutant labeling
# UniProt P01116, sequence (P01116 whole entry, looked up, the tested form may be a part): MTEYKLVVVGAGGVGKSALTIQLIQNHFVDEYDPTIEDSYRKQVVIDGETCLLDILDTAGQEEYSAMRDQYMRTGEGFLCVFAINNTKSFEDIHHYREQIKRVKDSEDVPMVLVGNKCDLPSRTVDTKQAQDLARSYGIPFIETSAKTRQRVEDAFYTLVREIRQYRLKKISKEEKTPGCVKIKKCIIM
Structure (SMILES),percent labeling [1] [%],percent labeling [2] [%],percent labeling [3] [%],percent labeling [4] [%],percent labeling [5] [%],percent labeling [6] [%],percent labeling [7] [%],percent labeling [8] [%],percent labeling [9] [%],percent labeling [10] [%],percent labeling [11] [%],percent labeling [12] [%]
O=C(CC1CCN(CC(F)F)CC1)NCCS,20.6,11.1,30.6,20.1,30.2,28.3,10.8,33.1,17.7,27,28.1,38.7
O=C(CCS)Nc1ccc(C(=O)O)cc1O,21,14,29,22,42.8,17.1,15.4,40,36.2,33.7,39.7,34.9
Cc1cc2ncn(CC(O)CNC(=O)CCS)c2cc1C (centres undefined),,13.7,31.4,38.4,30.4,42.3,26,,21.7,42.7,22.4,44.5
CN1Cc2cc(C(=O)NCCS)ccc2NC1=O,21.7,11.8,16.8,15.4,22.4,17.9,36.8,42.9,18.5,15.3,13.8,28.2
Cc1nc(Cl)ccc1CNC(=O)CCS,,14.8,30.9,36.6,22.9,34.3,24.2,,22.5,36.3,35.8,47.9
O=C(CCS)Nc1nnc(CC2CCCC2)s1,,15.1,16.7,16.6,11.6,18.9,54.6,,11.8,20.2,14.3,26.6
O=C(CCS)Nc1cccc2c1CN(c1ccccn1)C2,,0,8,16.8,7.8,10.2,3.9,,0,6.7,6.5,16.4
Cc1ncsc1C(=O)N1CCCN(C(=O)CCS)CC1,,8.4,35.6,39.4,24,44.3,17.1,,29.8,32.1,29.4,54.4
COCCn1nnc2c1CCN(C(=O)CCS)C2,,8.3,25.9,28.4,26.1,30.6,14.8,,15.2,28.5,30.2,46.6
CN1CC(C(=O)NCCS)c2ccccc2C1=O (centres undefined),26.1,6.4,24.7,17.6,47.3,27.4,12.2,28.2,10,26.4,19.2,41
NC(=O)C1CCN(c2ncccc2CNC(=O)CCS)CC1,,5.9,30.3,25.3,25.1,36.7,8.3,,10.7,22.3,22.1,42.3
O=C(CN1CCN(C(=O)CCS)CC1)Nc1ccccc1,,12.1,29.3,33.2,29.5,65.7,19.4,,24.3,34.2,33,46.7
COC(=O)c1ccc(CN(C)C(=O)CCS)o1,,14.1,29.9,35.8,38.8,35,21.3,,26.2,33.7,37,54.4
O=C(CN1CCC(C(F)(F)F)CC1)NCCS,39.8,20.9,39.7,27.5,57.1,35.3,26.5,49.2,28.9,37.3,33.7,49.4
O=C(NCCS)C1=NN(c2ccc(S(=O)(=O)O)cc2)C(=O)C1,,16,14.5,14.3,40.1,12.1,23.3,,16.7,17.2,32.9,25.8
Cc1nc(CN2CCC(CNC(=O)CCS)CC2)cs1,,11.8,39,51.5,30.3,47.5,20.7,,20.6,30.9,33.2,47.9
O=C(CCS)NCC(=O)Nc1ccc(F)cc1,,8.1,15.8,22.8,21,18.9,19.1,,19,21.4,20.4,26.3
Cn1ccc(C(=O)NC2(C(=O)NCCS)CCCCCC2)cc1=O,37.1,11.9,32.5,23.4,35.8,24.7,20.1,29,25.2,25.1,22.6,42.5
O=C(CCS)Nc1cc2n(n1)CCCN(Cc1ccccc1)C2,,17.7,31.9,36.4,25.8,40.6,36.9,,31.2,20.7,22.1,49.6
COc1ccc(C(=O)Nc2cc(F)ccc2C(=O)NCCS)cc1,32.3,15.1,15.4,13.2,7.7,6.5,25.1,23.9,6.7,6.4,3.8,16.6
Cc1c(C(=O)NCCS)oc2c1ccc1ccccc12,39.5,24.1,19.4,14.2,26.1,10.5,33.4,32,14.2,16.7,12.1,19.2
C[C@H]1C[C@H](NC(=O)CCS)c2ccsc2S1(=O)=O,,12.3,45,47,33,34.4,25.4,,33.6,34,32.4,63.9
O=C(CCS)N1CCN(Cc2ccncc2)CC1,,9.3,19.4,28,19.1,31.4,12.1,,9.3,23.6,23.1,43.1
O=C(NCCS)c1ncccc1-n1ncc2ccccc21,50.1,18.9,42.5,29.6,50.9,39.7,35.8,39.1,30.7,35.4,32.2,55.3

Structure (SMILES),percent labeling [1] [%],percent labeling [2] [%],percent labeling [3] [%],percent labeling [4] [%],percent labeling [5] [%],percent labeling [6] [%],percent labeling [7] [%],percent labeling [8] [%],percent labeling [9] [%],percent labeling [10] [%],percent labeling [11] [%],percent labeling [12] [%]
CC(C)Cc1cc(C(=O)NCCS)cc(=O)[nH]1,36.5,22.8,30.3,30.8,36.2,38.5,67.2,46.9,20.1,33,42.8,66.7
CN1CCN(C(=O)CCS)c2cc(F)ccc21,,21,40.8,22.6,13.2,24,49.2,,31.7,22.9,22.7,41.9
Cc1nc(CC(C)C)c(C(=O)NCCS)s1,42.3,16.5,37,23.5,31.1,37,38,41.7,25.7,29,30.4,54.2
O=C(CCS)NCc1ccncc1C(F)(F)F,,9.5,15.7,17.4,14.5,17.4,21.6,,10.6,22.9,18.5,24.7
O=C(CCS)N1CCC(Cc2nc(-c3ccc(F)cn3)no2)CC1,,15.3,30.4,33.1,26.8,35,32.5,,29.7,26,29.3,49
O=C(CCS)N1CCc2c([nH]c(=O)[nH]c2=O)C1,,21.8,24.9,47.7,26,34.8,28.1,,29,33.2,49.9,58.7
COc1ccc(C(=O)NCCS)c(OC)c1OC,40.1,24.2,38.6,22.7,38.2,39,32.9,43.3,25.9,32.8,31.1,53.2
CC(=O)N(C)Cc1ccccc1NC(=O)CCS,,11.3,44.1,31.2,29.8,33,18.3,,21.8,27.7,28.5,50.2
Cc1nn(Cc2ccccc2)c(C)c1NC(=O)CCS,,13.4,41.4,41.2,37.4,61.2,31,,22.8,37.2,37.3,60.7
CN(C)c1cnc(CNC(=O)CCS)cn1,,10.9,23.5,31.1,25.7,29.7,21.6,,18.6,28.6,33.7,41.2
O=C(CCS)N1CCC(C(O)c2ccc(F)cc2)CC1 (centres undefined),,18.3,40.4,47.3,38.8,60.1,30,,29.7,36.5,29.7,64.7
O=C(NCCS)c1ccccc1OC1CCCC1,36.4,18.6,47,16.9,13.5,18.6,57.3,28.4,7.4,16.2,13.4,24.5
Cc1nn(C2CCN(C(=O)CCS)CC2)c(=O)[nH]1,,12.2,28.6,35.8,34.5,38.1,22.1,,27.8,34.6,37.5,54.1
O=C(NCCS)c1ccc(NC(=O)C2CC2)s1,24.8,14.6,20.2,16.1,29.1,20.6,36.2,35.5,24.1,16.2,18.2,42.2
O=C(NCCS)c1cc2ccc(Br)cc2c(=O)o1,13.8,4.8,6.9,13.8,6.4,6.8,26.3,26,3.8,33.3,5.3,15
CC(C)C(NC(=O)CCS)c1nnc2n1CCC2 (centres undefined),,5,21.9,31.9,23.6,30.9,9.1,,12.2,26.2,36.6,49.3
CN(C)CCOc1cccc(NC(=O)CCS)c1,,17.7,36.9,55.4,36.8,43.6,36.6,,32.3,30.1,34,49.2
O=C(CCS)Nc1cnn(COc2ccc(Cl)cc2)c1,,9.2,15.4,15.2,11.7,19.4,27.3,,11.5,13,9.8,22.7
O=C(CCS)Nc1ccc(NC(=O)c2ccco2)c(Cl)c1,,7,6.4,16.2,0,9.6,32.7,,3.4,9.1,6.4,16.9
O=C(NCCS)C(c1cccc(F)c1)N1CCOCC1 (centres undefined),48.4,24.6,40.5,28.8,48.1,41.9,26,39.6,28.2,34.4,35.6,75.9
CCOc1cccnc1N1CCN(C(=O)CCS)CC1,,15.9,31.9,35.4,29.5,45.4,22,,15.9,34.7,35,64.4
CC(NC(=O)C12CC3CC(CC(C3)C1)C2)C(=O)NCCS (centres undefined),39.1,26,32.8,21.2,52.7,30,32.1,34.8,25.6,34.6,30.2,44.8
O=C(CCS)N1CCN(c2nn3cc(-c4ccc(F)cc4)nc3s2)CC1,,16.3,9,26.6,5.2,15.7,7.8,,0,8.2,4.8,32.5
Cc1nn(C)c(Oc2cccnc2)c1NC(=O)CCS,,8.4,29.7,39,31.2,38.2,12.8,,12.4,33.6,30.6,51.6
